Reference: publication PMC12136788
The list shows a part of the results.

B1: chr11:10797513:10797714:-|3pUTR|ENSG00000110321|msi1_unk|total|mutant (ssRNA)
RNA: GGGAGUUCUACAGUCCGACGAUCUUCUGCAUAAGGUUUUUUUGCCGUGUAAUGUCUUAAUCACCGUCUACCAUCAAAUAUUUCCGGAGUAUCUUUAAUGUUCCGACCGUAUAUCCGCAGCAUGCAAUAAUUACAUCAUAAGUUCAACAGAGGAUUGAGCAUCA
B2: chr1:213241217:213241334:+|CDS|ENSG00000136643|unk|FALSE|unique (ssRNA)
RNA: GGGAGUUCUACAGUCCGACGAUCAGUUCUCCAAGAACAUCAGAUUCCCUCAGUAGAUCAAAAAAUAGCCCCAUGGAAUUCUUUAGGAUAGACAGUAAGGAUAGCGCAAGUGAACUCCUGGGACUUGACUUUGGAGAAAAAUUGCAACAGAGGAUUGAGCAUCA
B3: chr12:122341087:122341188:-|CDS|ENSG00000130779|unk|total|mutant (ssRNA)
RNA: GGGAGUUCUACAGUCCGACGAUCAGAAUUUGCUGAACUAAAAACACAAACCGAGAAAAUGAGACCCGAUUACCAACACGAAACCGAAAAUUUGCAGAAUCAACAAGACUCUGAACGGGCUGCCCAUGCUAAAGAGAUGGAAGCCAACAGAGGAUUGAGCAUCA
B4: chr9:20999508:21007036:-|three_prime_utr|ENSG00000188921|control|control|control (ssRNA)
RNA: GGGAGUUCUACAGUCCGACGAUCAUACCUUGUAUUUGAUAAAAAUCCAUUACAUGAAAUAACUGCACAUACCCCCAAAACUCUAGACAUAACAGGCUAUGUUUUUCACACAUUGUAUUUUUAAGACAUAUAUAUUCUCCAUACCAACAGAGGAUUGAGCAUCA
B5: chr11:69651733:69651797:+|3pUTR|ENSG00000110092|msi1_unk|total|mutant (ssRNA)
RNA: GGGAGUUCUACAGUCCGACGAUCAAAACAUUUUAAAAACACCGAAAAAUUCAGCAAACCAUUUUUAAAGCCGAAGAGGGUUUCCGGCCGAAAAACAUAUUCUUGUGCUUUUCCUGAUAAAGCACAGCUGCCGUGGGGUUCCCGCAACAGAGGAUUGAGCAUCA
B6: ENSG00000074590:stop:overlap|stop_codon|ENSG00000074590|stop_codon|NA|stop_codon (ssRNA)
RNA: GGGAGUUCUACAGUCCGACGAUCACAUGGAUGAUGUGACUCAGGUCUACAAGCAAGCGCUGGAGAUCUGCAGCAAGCUCAACUAGCAUUCCAGGGCGCCCAGGGGCGGGCGGGGGUACGAGGGAGGAAGGGGAGCAAGACUUGCAACAGAGGAUUGAGCAUCA
B7: chr20:4700004:4700108:+|3pUTR|ENSG00000171867|msi1|FALSE|unique (ssRNA)
RNA: GGGAGUUCUACAGUCCGACGAUCUCACCAUCUUUCUAAUCUUUUUCCAGCUUGAGGGAGGCGGUAUCCACCUGCAGCCCUUUUAGUGGUGGUGUCUCACUCUUUCUUCUCUCUUUGUCCCGGAUAGGCUAAUCAAUACCCUUGCAACAGAGGAUUGAGCAUCA
B8: chr7:32869000:32869101:-|3pUTR|ENSG00000170852|msi1|FALSE|bound_elsewhere (ssRNA)
RNA: GGGAGUUCUACAGUCCGACGAUCAAUUGAGAAACUUUAUGUGUAAUCAUGAGAGUAUAAGAAUCUGGAUUAUCUAACAUUGUUAGCCCUGUGUAUGUACAGUUCAAAAAGUUCAUUUAUAAAAGUAGUUUCCUGUUCCUAGUGCAACAGAGGAUUGAGCAUCA
B9: ENSG00000065911:stop:overlap|stop_codon|ENSG00000065911|stop_codon|NA|stop_codon (ssRNA)
RNA: GGGAGUUCUACAGUCCGACGAUCACAGCUGCUCCCUUCGCCUUCGCCCUUUCCACCUCGCGGCAGUUCGGGGAAUCUCUCCCUAGGUCAGGUUGGAGUGCAGUGCUGCAAUCACGGCUUACUGCAGCCUUGACCUCCUGGGCUCAACAGAGGAUUGAGCAUCA
B10: chr8:65707876:65707977:+|CDS|ENSG00000066855|unk|FALSE|unique (ssRNA)
RNA: GGGAGUUCUACAGUCCGACGAUCCCUGCUGCCCUCAUAGCAGAGGCUCUGAAAAAGAAAUUUGCUUAUCGGUAUCGAAGUGAUAGCCAAGAUGAAGUUGAAAAAGGAAUUCCAAAGUCUGAAUCAGAGGCCACCUCAGAGAGACAACAGAGGAUUGAGCAUCA
B11: chr9:96387934:96388035:-|3pUTR|ENSG00000165244|msi1|total|mutant (ssRNA)
RNA: GGGAGUUCUACAGUCCGACGAUCAAUAUUUUGUAAAUAUGGACUGCACAGUACAGGGCCGAAAACUACAUAUUGUGGGAAGCCCGAUUUUGCAAGUUUAAUGCAUUCAUUGGAAGCAGUUCUCACAGGAAGCACUUUCUGAAUCAACAGAGGAUUGAGCAUCA
B12: chr2:88027786:88028563:-|CDS|ENSG00000172086|control|control|control (ssRNA)
RNA: GGGAGUUCUACAGUCCGACGAUCAACCGUACAUGUCAGUACAGAAAAGCUUAAGAAUCGAAAGGAGAAAAAAAGCCGAGAUGUAGUCUCUAAGAAAGAGGAACGUAAGCGUACAAAAAAGAAAAAGGAACAAGGCCAAGAAAGCAACAGAGGAUUGAGCAUCA
B13: chr11:86278520:86278536:+|CDS_3pUTR|ENSG00000074266|msi1_unk|FALSE|overlapping (ssRNA)
RNA: GGGAGUUCUACAGUCCGACGAUCUGAUGCCAGUAUUUGGCGCUGGGAUCGACUUCGAUAAAAUACUUUUGCCUAAUCAAAAUUAGAGUGUGUUUGUUGUCUGUGUAAAAUAGAAUUAAUGUAUCUUGCUAGUAAGGGCACGUACAACAGAGGAUUGAGCAUCA
B14: ENSG00000113068:stop:overlap|stop_codon|ENSG00000113068|stop_codon|NA|stop_codon (ssRNA)
RNA: GGGAGUUCUACAGUCCGACGAUCGAAGCGUUAAGGAAGCUGAGGACAACAUCCGGGAGAUGCUGAUGGCACGAAGGGCCCAGUAGGGAGCCUCUCUGGGAAGCUCUUCCUCCUGCCCCUCCCAUUCCUGGUGGGGGCAGAGGACAACAGAGGAUUGAGCAUCA
B15: chr8:88167829:88167930:-|CDS|ENSG00000156103|msi1|FALSE|bound_elsewhere (ssRNA)
RNA: GGGAGUUCUACAGUCCGACGAUCCUUUGAUGUGUGGCAGAAUGUAACUCCUCUGACAUUUGAAGAAGUUCCCUACAGUGAAUUAGAAAAUGGCAAACGUGAUGUGGAUAUAACCAUUAUUUUUGCAUCUGGUUUCCAUGGGGACAACAGAGGAUUGAGCAUCA
B16: chr3:133826890:133826991:-|3pUTR|ENSG00000154917|unk|FALSE|unique (ssRNA)
RNA: GGGAGUUCUACAGUCCGACGAUCUUUGAACGUGUUUCAGAUGUCAUGUGUUUAGUUUUUAUAUGUGUGUACAUAAUUAUAUAUAGAGAUAGACUUGUGUAUACACCUUCCACAAACACAUCCUCACGGAGAUACAUGUGCUCACAACAGAGGAUUGAGCAUCA
B17: chr5:159157431:159157536:-|3pUTR|ENSG00000145860|unk|FALSE|bound_elsewhere (ssRNA)
RNA: GGGAGUUCUACAGUCCGACGAUCCAAAAAGUGUUUUUCAGACCUCGGUAUUCCUAAUGUGGGAUGUGACUUUAUUUUAUUUUUAGUAGCAAAUUUGGAUGUAGACUGACAGACAUAGCUGAAUGUCUUAAUAAAUUUAAAUUUCAACAGAGGAUUGAGCAUCA
B18: chrX:13708825:13708941:+|CDS|ENSG00000123595|unk|total|mutant (ssRNA)
RNA: GGGAGUUCUACAGUCCGACGAUCGAGUUCACUUAUGAACAGAUAUGUAACUAAUAAGUUUGAUACCCAGCUCUUCCAUACAACCGGUGUGGAAUUUUUAAAUAAAGAUUUGGAAGUGGAUGGACAUUUUGUUACCAUGCAGAUCAACAGAGGAUUGAGCAUCA
B19: chr18:9400975:9401076:+|3pUTR|ENSG00000128791|msi1|FALSE|unique (ssRNA)
RNA: GGGAGUUCUACAGUCCGACGAUCUAUAAAAAUAGAUAAUGCUCUUGGACACAUUUUGUAUUAUUCAUGAUCUGAAUAGUAGUUAGUUAAAAGAUCAUUUGUAAUAUUAUGAUCAACUGUUAUAAAUUAAGGUCUUAAUACCUUCAACAGAGGAUUGAGCAUCA
B20: chr1:214641902:214642005:+|CDS|ENSG00000117724|unk|total|mutant (ssRNA)
RNA: GGGAGUUCUACAGUCCGACGAUCAGAAAUCAAUGUAAUUUUAAACCUCAGAUGGAUCUUGAAGUUAAAGAAAUUUCUCCCGACCGUUAUAAUGCGCAGUUGGUGCAAUCCGAAGCUAUGCUAAGAAAUAAGGAAUUAAAACUUCAACAGAGGAUUGAGCAUCA
B21: chr4:168927217:168927233:+|3pUTR|ENSG00000129116|msi1_unk|FALSE|overlapping (ssRNA)
RNA: GGGAGUUCUACAGUCCGACGAUCAACCACCCAAAUGACCAAGGCAUAUAUAGUAUUUGGAGGAAUCAGGGGUUUGGAAGGAGUAGGGAGGAGAAUGAAGGAAAAUGCAACCAGCAUGAUUAUAGUGUGUUCAUUUAGAUAAAACAACAGAGGAUUGAGCAUCA
B22: chr14:53039561:53039662:-|3pUTR|ENSG00000100523|unk|total|mutant (ssRNA)
RNA: GGGAGUUCUACAGUCCGACGAUCUCAAACUAUAUUUUUGUUACAGCAAACUACAUUCCAUUUGCCUUUAAAUGCUUGCAUUUCCGUUAUUGUACUGGCUACCUGUUUUUGUCUGCCCAGCAUCCUGUUUCCCCUCCUUUUGGACAACAGAGGAUUGAGCAUCA

The binders below were run against T1, UNK ZnF1-6 (called full-length) (human, UniProt Q9C0B0 30-357) (assay: nsRBNS (natural sequence RNA bind-n-seq); RBNS binding buffer (assumed for nsRBNS): 25 mM Tris pH 7.5, 150 mM KCl, 3 mM MgCl2, 0.01% Triton X-100, 500 ug/ml BSA, 20 U/ml SUPERase-In, 4 C; UNK is unkempt and MSI1 is Musashi-1; names of the RNAs are library labels; protein concentration not given here; high values mean tight binding).
T1 sequence: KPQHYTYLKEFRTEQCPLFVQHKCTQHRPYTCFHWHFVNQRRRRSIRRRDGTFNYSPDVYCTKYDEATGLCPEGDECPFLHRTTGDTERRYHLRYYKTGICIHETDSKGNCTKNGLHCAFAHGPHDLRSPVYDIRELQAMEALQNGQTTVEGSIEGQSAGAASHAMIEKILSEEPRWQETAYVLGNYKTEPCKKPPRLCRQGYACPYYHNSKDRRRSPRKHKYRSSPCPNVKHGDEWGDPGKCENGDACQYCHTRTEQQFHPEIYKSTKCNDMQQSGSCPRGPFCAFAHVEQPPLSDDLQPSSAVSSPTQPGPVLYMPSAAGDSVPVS

Binder	binding signal
B1	0.508 enrichment R
B2	2.63 enrichment R
B3	0.521 enrichment R
B4	2.23 enrichment R
B5	0.807 enrichment R
B6	1.02 enrichment R
B7	1.38 enrichment R
B8	0.774 enrichment R
B9	0.629 enrichment R
B10	0.424 enrichment R
B11	0.299 enrichment R
B12	0.699 enrichment R
B13	1.68 enrichment R
B14	0.898 enrichment R
B15	0.335 enrichment R
B16	0.601 enrichment R
B17	11.8 enrichment R
B18	0.423 enrichment R
B19	2.18 enrichment R
B20	0.401 enrichment R
B21	1.89 enrichment R
B22	0.468 enrichment R
